# Read counts are not given, so values of variants with three or more changes are uncertain.
# B1: LINE1-mini (parent)
# chain: GGCAGAGCUCAACACAGCGUGGCAAAGUGGCUGUGGCUAGACUGCC
# Variants of: B1
# Assay: self-cleavage, relative activity (ratio to wild type); higher = more cleavage; in vitro, sequencing; the parent is a self-cleaving ribozyme
row,Variant,self-cleavage
1,G1C G17U G30A C37A G40U U43C,0.01
2,G1U A24G A26G G33A,0.01
3,G1U A12C A16U G21A A24G G44C,0.02
4,G1U C3A A26G C37G U38G,0.04
5,G1C G7A G27U C46G,0.02
6,G1C G2U C3A A12C,0.02
7,G1U A4C U20A A24C U28A A39G,0
8,G1U A14U C42A,0.06
9,G1U A12G A16U,0.02
10,G1C G5C G17A,0.01
11,G1C G17C G33U,0.04
12,G1C U9G A11U G19A G40U,0
13,G1U A4G C13U C45U,0.12
14,G1U A6G C10A G36C G40A,0.01
15,G1U A16C G44C,0.05
16,G1U A12G C23G,0.03
17,G1U A39U C45A,0.83
18,G1C G22C A26C G30U G44C,0.12
19,G1C G2C C3A G17A U34G,0.01
20,G1C G7A A11G U32A G33C,0.01
21,G1U A16C U32G,0.24
22,G1U A24C G30C G35C G44U,0.04
23,G1C G2C G5U G17A,0.01
24,G1C G17C C18A A39G,0.01

row,Variant,self-cleavage
1,G1C G30A U38G A39G C45A,0
2,G1U A6U C8U G17C A25G,0.05
3,G1C G5U G7A G33C,0.04
4,G1C G19C U38A,0
5,G1U A12G U20A U38A,0.02
6,G1C G7U A25U G35U,0.03
7,G1U A41G G44C,0.04
8,G1U A24C U34G G40U,0.02
9,G1C G19C U20G,0.08
10,G1U A4U C10U A11U A12U U28A G30A G33U,0.01
11,G1U A16G G36A C46G,0.02
12,G1C G5U A12U A24G U43C,0.03
13,G1U A11C A12C G21C C46A,0
14,G1U A16G A24U C31U G40A,0.01
15,G1C U9C A11U G35C,0
16,G1U A11C G30U,0.03
17,G1C G30U C45G,0.05
18,G1U A4C A11C U28G,0.01
19,G1C G5U G19U G35A C37U,0.01
20,G1C G7U G36A,0.01
21,G1C G2C U43A,0.01
22,G1U A26C C37G C46A,0.04
23,G1U A6G C18G U34G,0.01
24,G1C U9A G19C A24U G29U G40C C45A,0.04

row,Variant,self-cleavage
1,G1U A6U G35U,0.08
2,G1C G2A G27C C45A,0.17
3,G1U A14U G22U A26U C37U U38C A39C,0.47
4,G1C G2U A4C G40C,0.02
5,G1U A6C G17U U28A,0.02
6,G1C U32G G33A G35U G44U,0.01
7,G1U A6G A11C,0.03
8,G1C G7A C10U A24G,0
9,G1U A12U C37A A39U,0.08
10,G1U A11C C13A U32C,0
11,G1U A12C U43G,0.02
12,G1U A14G G35A,0.04
13,G1C G5C A16G,0.01
14,G1C G7U C10U,0.01
15,G1U A6G U9G G22U,0.09
16,G1C G2U C31U,0.02
17,G1U A14G G21C G33C U38A,0.01
18,G1U A6G A25U G40U,0.19
19,G1C G22C U38G,0
20,G1U A6U C8A G30C U32A,0.04
21,G1C G7C C10G C15A U32A G33U U34C,0.02
22,G1U A25C G33A C37A G44A,0.02
23,G1C G19C U28C G40A,0
24,G1C G5U A25G U38A G40C,0.02

row,Variant,self-cleavage
1,G1U A6G C15U G17C,0.03
2,G1U C3A G5U U32G U38G C42A,0.19
3,G1U A12G U28C U34G U38G,0
4,G1U A11G C31U,0.02
5,G1C G17U C23A G30C,0.03
6,G1C G5U C18G U28C,0.02
7,G1C G22U C23U G30A G36U,0.02
8,G1C G2C A11G,0.01
9,G1U A11G G17A U32A C42G,0.01
10,G1C G5U C13U G19A G27U,0.01
11,G1U A12C G29A G33U U34G G44A,0.01
12,G1C G2A U28A G29C U34A,0.03
13,G1C G35C A41U,0.03
14,G1C U28A U34A,0.02
15,G1C U9C C18G G19U C42U,0.01
16,G1C G5A C8U C18A,0.08
17,G1U A24U G27U,0.32
18,G1U A24U G27C,0.27
19,G1U A24G C37U C45U,0
20,G1C G35C U38A U43C,0.02
21,G1C G7A A14C G40C,0.01
22,G1C G2U A39U,0.02
23,G1C G7U G17U G19A G30U G33A,0.02
24,G1C G21U G22A,0.23

row,Variant,self-cleavage
1,G1U C3A C8U A26C,0.55
2,G1U A4C A6U G22U G29C,0.06
3,G1C G21A G22A G33C,0.01
4,G1U A24G C45A,0.15
5,G1C G22A G33A,0.05
6,G1C G2U C10U U32G G35U,0.02
7,G1C G40U C45U,0.03
8,G1C G21C C23G G44A,0.06
9,G1C G17U G40U A41U C46G,0.03
10,G1C G2U G22A A24G,0.24
11,G1U A14G C15A C18G A25C,0.02
12,G1C G27A C31A,0.03
13,G1C U9C C18A U20A G21A A24C,0.01
14,G1C G5U G30A,0.02
15,G1U A4G G30C C46A,0.13
16,G1U A24G G27U,0.17
17,G1C U9G G40U,0
18,G1C U34C G40U U43G C45A,0
19,G1C U9A U20A C45A,0.03
20,G1U A24U G30A,0.09
21,G1U A24C U34G A41C C42U C45U,0.03
22,G1U A24G U43A C45A C46U,0.01
23,G1U A6G G19U C31G G40A,0.01
24,G1C U32C U43G,0

row,Variant,self-cleavage
1,G1U A16U G17C G22A A25G U32A,0.01
2,G1U A6C A11G G27U G36U C37A A39C G40U,0
3,G1C G2C C42G,0.02
4,G1U A12C G21C,0.01
5,G1C G7U G33A G44U,0.05
6,G1U A16U G33A,0.03
7,G1C G29A C46A,0.61
8,G1U A24U G29U,0.81
9,G1U A41U C45U,0.12
10,G1C G7U G19A C37U,0
11,G1U A4G G22U C31A,0.13
12,G1U A14U G17A C31G,0.01
13,G1U A6G G27U G35C,0.06
14,G1U C3A C8A G17U U20G C37U G40C,0.07
15,G1U A14C U38A A39C,0.01
16,G1C G19A C23G,0.02
17,G1C G5U C15A C42U,0.03
18,G1C G5A A6G U34G,0.01
19,G1C G7A A16U G40C,0.01
20,G1U A16G G40U,0.04
21,G1U A4C G7A G19A U28A U43C,0.14
22,G1C G2C C10G C46A,0.06
23,G1U A6U U9A,0.05
24,G1C G5C G7A A16U G30A G33U G36C,0.05

row,Variant,self-cleavage
1,G1U A6U G33C,0.13
2,G1U A11U G35A G40U,0
3,G1C U32A G33C C42G,0.02
4,G1C G5A C46U,0.05
5,G1C G5U A6C G33C G44U C46U,0.03
6,G1C U20G G30A G36U,0
7,G1C G5U G27C U28C,0
8,G1U A14U C15U C18G G30U,0.04
9,G1C G2U C10G G21A A26U G29U,0.02
10,G1C U9G G44U,0.01
11,G1C G19U C31U,0.04
12,G1C U9A A14G,0.01
13,G1U A12U A14G A26G,0.17
14,G1C G27A C37U U43A,0.03
15,G1C G7A G17U A26G,0.14
16,G1U A14U G40A C46A,0.03
17,G1C G21C C23U,0.45
18,G1C G29U G36U,0
19,G1C G7C A11U C13A A14C G21C C42G,0.02
20,G1U A4C A11G C15U,0.03
21,G1U C3A C31A C45G,0.26
22,G1C G21U G22U G30C,0.14
23,G1U A12C C13A C46G,0.04
